According to PubChem BioAssay AID1645886 (National Center for Advancing Translational Sciences (NCATS), 2021):
Hit rate of the full screen: of about 16,000 compounds, about 260 (1.6%) were called active. The inconclusive results got no clear call from the source; some entries with a clear call stand among them for comparison. Calls follow the shape of the dose curve; as a rule, active = well fitted inhibition curve with a large enough effect; inconclusive = small, poorly fitted or top-dose-only effect; inactive = no such curve, though single readings can be large or run the other way. Potencies of inconclusive entries are left out as doubtful fits.

What follows are compounds tested against Rap guanine nucleotide exchange factor 4 (Homo sapiens) (UniProt Q8WZA2) (assay: Validation qHTS for antagonist of cAMP-regulated guanine nucleotide exchange factor 4 (EPAC2)). Details: EPAC2 Rap1B BODIPY-GDP exchange, fluorescence; activity, negative = inhibition: at 112 µM (top of the series).
Sequence of UniProt Q8WZA2 (Q8WZA2 whole entry, looked up): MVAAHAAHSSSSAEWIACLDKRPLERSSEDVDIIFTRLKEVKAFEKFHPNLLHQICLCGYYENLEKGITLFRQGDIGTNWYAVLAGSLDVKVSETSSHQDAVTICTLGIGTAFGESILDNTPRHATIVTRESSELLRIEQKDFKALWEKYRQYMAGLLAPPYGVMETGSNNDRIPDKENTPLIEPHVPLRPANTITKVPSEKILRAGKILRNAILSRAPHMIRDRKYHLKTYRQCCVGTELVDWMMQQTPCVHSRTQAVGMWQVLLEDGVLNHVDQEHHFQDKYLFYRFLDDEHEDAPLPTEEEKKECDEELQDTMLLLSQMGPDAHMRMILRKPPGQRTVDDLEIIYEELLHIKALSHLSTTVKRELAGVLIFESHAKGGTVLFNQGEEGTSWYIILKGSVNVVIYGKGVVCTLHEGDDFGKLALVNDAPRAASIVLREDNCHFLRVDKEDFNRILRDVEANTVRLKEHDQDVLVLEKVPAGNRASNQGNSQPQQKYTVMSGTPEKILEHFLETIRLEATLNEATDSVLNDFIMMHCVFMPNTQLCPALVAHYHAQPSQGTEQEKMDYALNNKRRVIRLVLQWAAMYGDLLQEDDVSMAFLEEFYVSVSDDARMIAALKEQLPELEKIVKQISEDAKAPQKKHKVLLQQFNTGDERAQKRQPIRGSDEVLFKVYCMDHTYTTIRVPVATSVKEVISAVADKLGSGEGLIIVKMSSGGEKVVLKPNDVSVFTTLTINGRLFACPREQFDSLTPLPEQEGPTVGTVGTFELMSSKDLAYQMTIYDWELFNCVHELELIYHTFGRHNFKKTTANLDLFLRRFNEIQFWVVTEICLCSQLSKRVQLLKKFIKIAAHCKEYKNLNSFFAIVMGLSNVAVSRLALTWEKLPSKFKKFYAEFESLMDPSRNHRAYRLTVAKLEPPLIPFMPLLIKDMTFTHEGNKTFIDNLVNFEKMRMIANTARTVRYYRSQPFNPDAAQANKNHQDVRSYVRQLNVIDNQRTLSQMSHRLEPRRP
Outline: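 Normalized against a 6.5 mM cAMP agonist control, compounds were tested on 100 nM EPAC2 exchanging Rap1B-bound BODIPY-GDP (250 nM) for 50 uM GDP. Fluorescence drop (ex 480, em 540 nm) was tracked at room temperature over 30 min at 5-min intervals.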
Also: nearly all actives have a fitted effect of over 40% in size.
Potency is read from the fitted curve at half-maximal effect; tags tell the direction and shape of the fitted curve.

`COCCn1c(=O)c(-c2cccc(C#N)c2)nc2cnc(Nc3ccccc3)nc21` was tested. Which “activity, negative = inhibition” value did it give?
Its value is inactive: 9.86%.

Which Potency does the source give for `Cc1nc2cnc(Oc3cccc(Cl)c3)nc2n(CCC#N)c1=O` here?
Its Potency is inconclusive [inhibitor, full curve, poor fit].

With `CCOC(=O)[C@H](CS)NCCN[C@@H](CS)C(=O)OCC` as the compound, how does the “activity, negative = inhibition” value read?
The value was inactive: 7.5%.

`Nc1nc2c(nc(Cl)n2C2OC(CO)C(O)C2O)c(=O)[nH]1` (stereo not given) was tested. Which “activity, negative = inhibition” value did it give?
The value was inactive: -5.51%.

`O=S(c1cc(Cl)cc(Cl)c1O)c1cc(Cl)cc(Cl)c1O` was tested. Which Potency did it give?
The Potency was inconclusive [inhibitor, partial curve].

With `CC[C@@H](C)[C@H](NS(=O)(=O)c1cccc2ccccc12)C(=O)N[C@H](C=O)Cc1c[nH]c2ccccc12` as the compound, how does the Potency read?
The Potency was inconclusive [inhibitor, full curve, poor fit].

For `CCc1cccc2c3c([nH]c12)C(CC)(CC(=O)O)OCC3` (stereo not given), which Potency is on record?
Its Potency is inconclusive [inhibitor, partial curve, poor fit].

Which Potency does the source give for `COc1ccc2c(c1)OCC(Cc1ccc(OC)c(OC(C)=O)c1)C2=O` (stereo not given) here?
Its Potency is inconclusive [inhibitor, partial curve, poor fit].

`COC(=O)C[C@H]1c2cc(C(F)(F)F)ccc2S(=O)(=O)N1C(C)(C)C` was tested. Which Potency did it give?
Its Potency is inconclusive [inhibitor, partial curve, poor fit].

With `O=C1C(=O)c2ncccc2-c2cccnc21` as the compound, how does the Potency read?
Its Potency is inconclusive [inhibitor, partial curve].

For `CCCn1c(=O)c2[nH]c(-c3ccc(S(=O)(=O)O)cc3)nc2n(CCC)c1=O`, which Potency is on record?
Its Potency is inconclusive [inhibitor, single point].

How did the Potency turn out when `O=C1N(c2ccccc2)c2ccccc2C1(Cc1ccncc1)Cc1ccncc1` was run?
Its Potency is inconclusive [inhibitor, partial curve, poor fit].

How did the “activity, negative = inhibition” value turn out when `Cc1cnc(C)c(-c2cc(F)cc3c2OC(CNC(=O)Cc2c(C)noc2C)C3)n1` (stereo not given) was run?
The value was inactive: -29.1%.

For `COc1ccc(-c2coc3c(OC)c(OC)cc(O)c3c2=O)cc1`, which Potency is on record?
Its Potency is inconclusive [inhibitor, partial curve, poor fit].

Which “activity, negative = inhibition” value does the source give for `COC(=O)C(C)c1ccc(C(=O)c2cccs2)cc1` (stereo not given) here?
The value was inactive: -22.3%.

With `COC(=O)[C@@H]1CCCN1C(=O)c1cc(NC(=O)c2ccccc2)cc2ncn(C3CCCC3)c12` as the compound, how does the Potency read?
The Potency was inconclusive [inhibitor, partial curve, poor fit].

`Cc1nc2cnc(Oc3cccc(Cl)c3)nc2n(C[C@H]2CCCO2)c1=O` was tested. Which Potency did it give?
Its Potency is inconclusive [inhibitor, full curve, poor fit].

`CCCCCCCCCc1ccc(OCCOCCO)cc1` was tested. Which Potency did it give?
Its Potency is inconclusive [inhibitor, partial curve].

For `CCCCCCCCCCCCCCCC(C)C1=NCCN1` (stereo not given), which Potency is on record?
The Potency was inconclusive [inhibitor, single point].

Which Potency does the source give for `COC(=O)c1ccc(C(=O)NCC2Cc3cc(F)cc(-c4cncnc4)c3O2)cc1` (stereo not given) here?
The Potency was active: 2.51 µM.

For `Cc1cccc2c3c(ccc12)C1=C(C(=O)C3=O)C(C)CO1` (stereo not given), which Potency is on record?
Its Potency is inconclusive [inhibitor, partial curve].

With `CCCCCCCCCCCC(=O)OC[C@@H](O)C1OC[C@H](O)[C@H]1O` (stereo not given in full) as the compound, how does the Potency read?
Its Potency is inconclusive [inhibitor, partial curve, poor fit].

For `O=C(c1ccc(Cl)cc1)N1CCN(c2ccc([N+](=O)[O-])c3ncccc23)CC1`, which Potency is on record?
Its Potency is inconclusive [inhibitor, single point].

For `COc1cc(C)c(CC/C(C)=C/C=C/C(C)=O)c(C)c1C`, which Potency is on record?
The Potency was inconclusive [inhibitor, full curve, poor fit].

With `O=C(c1cnn(-c2nccc(-c3ccccc3F)n2)c1C1CC1)N1CCN(CCO)CC1` as the compound, how does the Potency read?
Its Potency is inconclusive [inhibitor, single point].

Which Potency does the source give for `C=C1CCC(O)C/C1=C\C=C1/CCCC2(C)C1CCC2C(C)CCCC(C)C` (stereo not given) here?
Its Potency is inconclusive [inhibitor, partial curve].

For `CCCCCCCC/C=C\CCCCCCCC(=O)NCCc1ccc(O)c(O)c1`, which Potency is on record?
Its Potency is inconclusive [inhibitor, partial curve, poor fit].

How did the Potency turn out when `CCCCCCCCCCCCCCC(C(=O)OC)C(O)(CC(=O)OC)C(=O)OC` (stereo not given) was run?
The Potency was inconclusive [inhibitor, partial curve].

How did the Potency turn out when `O=C1OC2(c3ccc(O)cc3Oc3cc(O)ccc32)c2ccccc21` was run?
The Potency was “inactive”.

How did the “activity, negative = inhibition” value turn out when `CCCCCCCCCCCCCC[N+](C)(C)Cc1ccccc1` was run?
Its value is inactive: 7.66%.

For `CCCCNC(=O)O[C@@H]1C[C@@H]2CCN3C(=O)CCC[C@H]([C@H]1CC)[C@H]23`, which Potency is on record?
The Potency was inconclusive [inhibitor, partial curve, poor fit].

With `O=C1C2C=CC=CC2=NC(=S)N1CCN1CCC(=C(c2ccc(F)cc2)c2ccc(F)cc2)CC1` (stereo not given) as the compound, how does the Potency read?
Its Potency is inconclusive [inhibitor, full curve, poor fit].

How did the “activity, negative = inhibition” value turn out when `Cc1ncsc1CCC(=O)N1CCCC(c2nc(-c3ccncc3)ncc2-c2ccccc2)C1` (stereo not given) was run?
The value was inactive: -18.2%.

How did the Potency turn out when `CC(C)=CCC/C(C)=C/COc1c2occc2cc2ccc(=O)oc12` was run?
Its Potency is inconclusive [inhibitor, partial curve].

For `COc1ccc(C(=O)C[n+]2cccc(Br)c2)cc1`, which Potency is on record?
Its Potency is inconclusive [inhibitor, single point].

How did the Potency turn out when `COc1ccccc1O` was run?
Its Potency is inconclusive [inhibitor, full curve, poor fit].

How did the Potency turn out when `CCCC1([C@H](O)C/C=C/[C@H]2[C@H](O)CC(=O)[C@@H]2CCCCCCC(=O)OC)CCC1` was run?
Its Potency is inconclusive [inhibitor, partial curve].

Which Potency does the source give for `CC(=O)c1cc2c(cc1O)OC(C)(C)C=C2` here?
The Potency was inconclusive [inhibitor, partial curve, poor fit].

How did the Potency turn out when `Cc1ccccc1CN1[C@@H](CC2CCCCC2)COCCS1(=O)=O` was run?
Its Potency is inconclusive [inhibitor, partial curve, poor fit].

How did the Potency turn out when `O=C(c1ccncc1)N1CCC2(CCN(Cc3cc(C(F)(F)F)cc(C(F)(F)F)c3)CC2)CC1` was run?
The Potency was inconclusive [inhibitor, partial curve, poor fit].

How did the Potency turn out when `CC[N+]1(CC(=O)c2ccc(I)cc2)CCCCC1` was run?
The Potency was inconclusive [inhibitor, single point].

`COc1cc(O)cc(/C=C/c2ccccc2)c1` was tested. Which Potency did it give?
Its Potency is inconclusive [inhibitor, partial curve, poor fit].

For `C[C@@H]1[C@H](c2ccccc2)OCCS(=O)(=O)N1Cc1ccc(Cl)cc1`, which Potency is on record?
Its Potency is inconclusive [inhibitor, partial curve, poor fit].

How did the Potency turn out when `CC(=O)N(Cc1ccc2c(c1)OCO2)Cc1cc2ccc(C)cc2nc1-c1cccc(C)c1` was run?
Its Potency is inconclusive [inhibitor, partial curve].

`C1=Cc2ccccc2/C1=C/c1ccc(/C=C2\C=Cc3ccccc32)cc1` was tested. Which “activity, negative = inhibition” value did it give?
The value was inactive: 17.4%.

How did the Potency turn out when `Cc1occc1C(=O)Nc1cccc(-c2nc(CNC(=O)c3ccc4ccccc4n3)c(C)o2)c1` was run?
The Potency was inconclusive [inhibitor, partial curve].

With `COc1ccc(-c2ccc(C(=O)N3CCc4c(cnc(C)c4CNS(=O)(=O)N(C)C)C3)o2)cc1` as the compound, how does the activity, negative = inhibition read?
Its activity, negative = inhibition is inconclusive: -36.1% [inhibitor].

For `O=S(=O)(c1ccccc1)N1CCC2(CC1)CN(Cc1ccccc1)C2`, which Potency is on record?
The Potency was inconclusive [inhibitor, single point].

Which Potency does the source give for `C[C@@H](CN=[N+]=[N-])CN1CC[C@H](C(C)(C)C)CCC1=O` here?
The Potency was inconclusive [inhibitor, single point].

`N#Cc1cc2[nH]c(=O)c(=O)[nH]c2cc1[N+](=O)[O-]` was tested. Which Potency did it give?
The Potency was inconclusive [inhibitor, partial curve].

For `CC(=O)/C=C/c1ccc2c(c1)S(=O)(=O)N(C1CCCC1)[C@H]2CC(C)=O`, which Potency is on record?
The Potency was inconclusive [inhibitor, full curve, poor fit].

How did the Potency turn out when `CO[C@H]1[C@H](NC(=O)c2cccs2)c2ccccc2C12CCN(Cc1cccn1-c1cccnc1)CC2` was run?
Its Potency is inconclusive [inhibitor, single point].

How did the Potency turn out when `O=C(c1cccnc1)C1CCCN(Cc2ccc3c(c2)CN(C(=O)c2cccc(Cl)c2)CCO3)C1` (stereo not given) was run?
The Potency was inconclusive [inhibitor, partial curve, poor fit].

How did the Potency turn out when `CCCCN1C[C@H](Cc2ccccc2)[C@@H](CC(=O)Nc2ccccc2)C1=O` was run?
Its Potency is inconclusive [inhibitor, full curve, poor fit].

How did the Potency turn out when `CCCCN1CC[C@H]2C=CC[C@@H](C(=O)Nc3ccc(OC)cc3)[C@H]2C1=O` was run?
The Potency was inconclusive [inhibitor, single point].

Which Potency does the source give for `COc1ccc(C(=O)c2ccc(C)cc2)c(O)c1` here?
Its Potency is inconclusive [inhibitor, full curve].

With `COc1cccc(CN2C(=O)NC(C)(C3CCN(Cc4cc(F)cc(F)c4)CC3)C2=O)c1OC` (stereo not given) as the compound, how does the Potency read?
Its Potency is inconclusive [inhibitor, full curve, poor fit].

For `COCC(=O)N1CCC[C@@]2(CCN(Cc3cc(C(F)(F)F)cc(C(F)(F)F)c3)C2)C1`, which Potency is on record?
Its Potency is inconclusive [inhibitor, partial curve, poor fit].

For `COc1ccc(CN2CCCC(c3nc(-c4ccncc4)ncc3-c3ccccc3C)C2)c(OC)c1` (stereo not given), which Potency is on record?
Its Potency is inconclusive [inhibitor, full curve, poor fit].

For `CN(C(=O)c1cnn(-c2ncc3c(n2)-c2ccccc2CCC3)c1C1CC1)C1CCOC1` (stereo not given), which Potency is on record?
The Potency was inconclusive [inhibitor, single point].
